Article PMC4336329 (PLoS ONE, 2015)
The campaign covered roughly 310,000 compounds. About 2,200 (0.71%) showed an effect of 50% or more. The effect is printed as a negative number. Some of the results follow.

target: human ether-à-go-go-related gene (hERG) potassium channel (human, UniProt Q12809); assay: primary screen, population patch clamp on CHO cells stably expressing hERG
Sequence (Q12809 whole entry, looked up): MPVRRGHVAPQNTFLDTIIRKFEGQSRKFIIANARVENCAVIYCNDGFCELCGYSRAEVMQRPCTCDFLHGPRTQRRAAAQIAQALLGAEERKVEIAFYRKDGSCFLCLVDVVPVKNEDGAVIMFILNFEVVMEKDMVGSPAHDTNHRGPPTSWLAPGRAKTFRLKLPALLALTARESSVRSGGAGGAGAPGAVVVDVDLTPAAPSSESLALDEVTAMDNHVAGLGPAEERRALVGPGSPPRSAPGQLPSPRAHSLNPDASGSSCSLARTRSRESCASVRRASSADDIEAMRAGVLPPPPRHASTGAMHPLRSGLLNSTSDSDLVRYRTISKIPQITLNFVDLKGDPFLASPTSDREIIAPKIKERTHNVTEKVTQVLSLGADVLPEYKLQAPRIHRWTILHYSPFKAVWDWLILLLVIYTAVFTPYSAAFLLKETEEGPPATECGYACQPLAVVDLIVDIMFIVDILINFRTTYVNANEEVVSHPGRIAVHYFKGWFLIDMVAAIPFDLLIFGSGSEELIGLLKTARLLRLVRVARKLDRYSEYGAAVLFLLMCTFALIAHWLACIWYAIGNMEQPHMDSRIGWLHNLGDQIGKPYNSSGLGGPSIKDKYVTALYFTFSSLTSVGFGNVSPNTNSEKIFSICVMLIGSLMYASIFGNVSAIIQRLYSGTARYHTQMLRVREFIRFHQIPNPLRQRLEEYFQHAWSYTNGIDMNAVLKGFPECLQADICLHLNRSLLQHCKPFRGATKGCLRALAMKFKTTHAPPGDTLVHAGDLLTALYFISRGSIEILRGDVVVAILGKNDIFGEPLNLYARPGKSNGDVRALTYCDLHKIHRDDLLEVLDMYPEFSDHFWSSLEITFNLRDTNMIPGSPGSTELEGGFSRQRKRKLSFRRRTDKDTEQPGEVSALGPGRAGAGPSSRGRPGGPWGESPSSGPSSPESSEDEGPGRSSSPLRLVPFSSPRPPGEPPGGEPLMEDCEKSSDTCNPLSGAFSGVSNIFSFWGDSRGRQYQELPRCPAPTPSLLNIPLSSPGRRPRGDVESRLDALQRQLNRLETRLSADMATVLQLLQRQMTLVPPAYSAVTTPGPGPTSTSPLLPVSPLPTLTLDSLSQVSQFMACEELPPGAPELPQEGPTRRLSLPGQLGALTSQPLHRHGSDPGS

Compound	hERG current change (%, negative = inhibition) at 1uM
COc1ccc(-c2ccc(OC)c([C@H]3[C@H]4C=CC[C@@H](C)[C@@H]4C(=O)N3Cc3ccccc3)c2)cc1OC	13%
CCOc1cc2[nH]c(=S)n(CCC(=O)N3CCc4ccccc4C3)c(=O)c2cc1OCC	-0.166%
O=C(Cc1coc2ccc3ccccc3c12)N1CCc2ccccc21	7.35%
CCOC(=O)C1C(c2ccc(OC)cc2)N(C)OC1(O)C(F)(F)F (centres unmarked)	15.8%
Cl.O=C1c2ccccc2-c2cccnc21	15.3%
CCOc1ccc(OCCC(=O)NNC(=O)c2ccccc2Cl)cc1	5.15%
Cc1ccccc1OCCN1CCC(Cc2ccccc2)CC1.O=C(O)C(=O)O	-10%
CCOC(=O)N1CCN(C(=O)c2cc3c(-c4cccc(OC)c4)nn(C)c3s2)CC1	9.68%
O=C(CN1C(=O)NC2(CCCC2)C1=O)OCCOc1cccc(Cl)c1	8.78%
O=C(O)C(=O)/C(=C\c1ccsc1)c1ccc2ccccc2n1	13.4%
CN(C)c1cc(-c2ccccc2)nc(-c2ccccc2)n1	14.1%
Cn1nc(C(F)(F)F)c(-c2cccc(C(F)(F)F)c2)c1NC(=O)c1nccnc1C(=O)O	12.1%
CN(C)S(=O)(=O)c1ccc(C(=O)Nc2ccccc2SCCC#N)cc1	0.708%
O=C(CSc1nc2ccccc2c(=O)n1CC1CCCO1)NCc1ccccc1 (centres unmarked)	8.6%
O=C(O)/C=C/C(=O)OC1CC2CCC1C2 (centres unmarked)	9.88%
COc1ccc(O)c(/C=N\NC(=O)CCn2nnc3ccccc32)c1	3.01%
CC1CN(C(=O)COC(=O)Cc2c(F)cccc2Cl)CC(C)O1 (centres unmarked)	10.1%
COc1ccc(NC(=O)c2cccc(F)c2)cc1Cl	9.26%
COc1cc(/C=C2\SC(=Nc3ccccc3)NC2=O)cc(Cl)c1O	16.1%

Compound	hERG current change (%, negative = inhibition) at 1uM
COc1ccc(/C(N)=N/OC(=O)CCC2CCCC2)cc1OC	-3.95%
CC(=O)NCCNC(=O)c1cccc(NS(=O)(=O)c2ccc3c(c2)OCCO3)c1	3.7%
COc1cccc(C(=O)Nc2cc(C(F)(F)F)ccc2Cl)c1	13.5%
CCCCCCCN1C(Nc2ccccc2)=NC[C@@H]1C	-55.2%
COc1cccc(Cn2c(NCc3cccnc3)nc3c2c(=O)n(C)c(=O)n3C)c1	4.99%
CC(C(=O)Nc1ccccn1)(c1ccccc1)c1ccccc1.Cl	5.77%
CC(C)CC(=O)Nc1nnn(C)n1	0.386%
CCN(CC)CCCNC(=O)c1cc(-c2ccccc2)c(N2CCCCC2)s1	-4.84%
CCc1cc2ccc(C)c(C)c2nc1SCC(=O)NNC(=O)c1ccco1	11.7%
COc1ccc(/C=C2\Sc3ccc(C(=O)NCC4CCCO4)cc3N(C)C2=O)cc1 (centres unmarked)	9.73%
Cc1sc(NC(=O)CSc2nc(O)cc(=O)[nH]2)nc1-c1ccccc1	8.02%
O=C(O)c1ccc(NC(=S)NCc2ccccc2)cc1	9.38%
Cc1nn(Cc2cccc(F)c2)c(C)c1NC(=O)c1c([N+](=O)[O-])c(C)nn1C	2.77%
COc1ccc(C(CC(=O)Nc2cc(OC)cc(OC)c2)n2cccc2)cc1 (centres unmarked)	7.54%
COc1ccc(Cl)cc1NC(=O)C/C(C)=N/NC(=O)c1ccccc1Cl	22.3%
Cc1ccccc1-n1ncc2c(SCC(=O)N3c4ccccc4CC3C)ncnc21 (centres unmarked)	8.33%
Cc1nc2nc3c(c(=O)n2[nH]1)CCCC3	-0.889%
CCCCCN=Cc1c(C)[nH]n(-c2nc3ccccc3s2)c1=O	-16.9%
O=C1NC(NS(=O)(=O)c2ccccc2)(C(F)(F)F)C(=O)N1Cc1cccnc1 (centres unmarked)	8.79%

Compound	hERG current change (%, negative = inhibition) at 1uM
Cc1ccc(S(=O)(=O)NCc2cccnc2)s1	1.36%
O=C(Nc1ccc(Cl)cc1Cl)c1n[nH]c(Cn2cncn2)n1	1.44%
COC(=O)Cc1[nH]nc2c1C1(C(=O)N(Cc3ccccc3)c3ccccc31)C(C#N)=C(N)O2 (centres unmarked)	-1.87%
Cc1ccc(P(=O)(CO)c2ccc(C)cc2)cc1	-7.37%
COc1cccc2c3c(c(=O)[nH]c12)CC(C)(C)O3	5.53%
O=C(CCN1C(=O)c2ccccc2C1=O)Nc1ccc2c(c1)OCCO2	4.26%
O=C(NCCc1c[nH]c2ccc(Cl)cc12)c1ccc([N+](=O)[O-])cc1	6.91%
Cc1ccc(S(=O)(=O)N(C)C)cc1NC(=S)N(CCC#N)Cc1cccnc1	4.46%
CN1CCN(CCCNC(=O)c2ccc(/C=C3\Oc4ccccc4N(Cc4ccc(Cl)cc4)C3=O)cc2)CC1	18.7%
O=c1cc(O)c(-c2cccc(Cl)c2)c(Cl)[nH]1	14.3%
COc1ccc2oc(C(=O)c3ccccc3)c(NC(=O)CN3CCN(C)CC3)c2c1	-12.2%
NC(=O)C(=O)N/N=C/c1c(F)c(F)c(F)c(F)c1F	8.35%
CN(CC(=O)Nc1ccc(F)cc1)C(=O)COC(=O)CNC(=O)c1sc2ccccc2c1Cl	19.4%
Fc1ccccc1/C=C1\CCCC2=C1Nc1ncnn1C2c1ccccc1F (centres unmarked)	0.998%
Cc1cc(NC(=O)CSCC(=O)OC(C)C(=O)c2cc(C)c(C)cc2C)no1 (centres unmarked)	11.5%
Nc1c(N)c2ccccc2oc1=O	6.57%
CCC(CC)N1CCN(S(=O)(=O)c2ccc(OC)cc2)CC1.O=C(O)C(=O)O	16.6%
COC(=O)Nc1ccc(S(=O)(=O)Nc2ccc(O)cc2)cc1	4.63%
